# Measured values published in PMC12040169 (PLOS Biology, 2025).
# This is one part of the list.
# Tested on: T1, C. trachomatis L2/434/Bu expressing GFP (CTL2-GFP)
# T1 construct: L2/434/Bu GFP intracellular growth in HeLa cells
# Parameters: species or system HeLa; C. trachomatis total inclusion area by high-content imaging, normalised to DMSO
# Conditions: total inclusion area; 28.5 h, 10 µM; inhibitor
# How it was run: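 Host cell viability was gauged from Hoechst-stained nuclei counts, while chlamydial growth was taken from total inclusion area and inclusion number per well. Cells were fixed and imaged by high-content microscopy once bulk GFP and resorufin fluorescence had been measured.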
row,Structure (SMILES),% of control remaining
1,O=C(N/N=C/c1c(O)ccc2ccccc12)c1ccc(CO)nc1 [CBK261375],26.8902
2,Nc1ccc(-c2cc(F)cc(F)c2)c2ccccc12 [CBK084314],80.4589
3,CC(C)(C)c1ccccc1NC(=O)N(Cc1cc(F)cc(F)c1)CC1CCNCC1 [CBK049802],86.0811
4,CC(=O)Nc1ccc(CCOc2nccnc2-c2ccc(C)cc2C)cc1 [CBK106985],95.1487
5,O=C(c1ccoc1)N1CCC2(CCCN(Cc3ccc(OC(F)(F)F)cc3)C2)C1 (stereo not drawn) [CBK132801],84.1868
6,COc1ccc(C(=O)Nc2ccccc2C(=O)NCCCC(=O)O)cc1 [CBK287024],106.819
7,Cc1ccc(S(=O)(=O)NC(Cc2ccccc2)C(=O)O)cc1 (stereo not drawn) [CBK217645],108.713
8,Cn1c(=O)c(-c2nc3ccccc3[nH]2)c(O)c2ccccc21 [CBK027678],81.7335
9,COc1ccc(-c2nc(NC(=O)Cc3ccccc3OC)cnc2-c2cccc(C)c2)cn1 [CBK036839],110.632
10,CC12CCC(CC1C(=O)NC1CC1)[C@]1(C2)NC(=O)c2ccccc2N1 (stereo partly drawn) [CBK284445],89.5987
11,CC1=Nc2c(cnn2-c2ccccc2)C2=NCCCN12 [CBK287928],88.4508
12,Cn1c(=O)n(CC(=O)NCc2cccc(F)c2)c2cccnc21 [CBK283911],108.731
13,O=C(CCC(=O)c1ccccc1)Nc1ccccc1N1CCNCC1 [CBK028284T],93.8473
14,NC(=O)CN1CC2(CCN(CC(=O)Nc3ccc(F)c(Cl)c3)CC2)c2ccccc21 [CBK126790],78.0498
15,CCOc1ccc(C(=O)C2=C(O)C(=O)N(CCN3CCOCC3)C2c2ccc(N(C)C)cc2)c(C)c1 (stereo not drawn) [CBK264650],93.6402
16,O=C(Nc1ccccc1-c1nc2ccccc2[nH]1)c1ccc2c(c1)OCCO2 [CBK293924],131.39
17,CCOC(=O)c1sc2ccc(NC(C)=O)cc2c1C [CBK021052],50.2654
18,Cc1nc(-c2ccccc2)c(CC(=O)NC2CCCOC2)s1 (stereo not drawn) [CBK282586],87.0614
19,CCOc1ccc(-c2c(C3CC3)n[nH]c2N)cc1OCC [CBK288177],91.5202
20,O=C(Nc1cccc(C(F)(F)F)c1)N1CCN(CCCCc2ccc(F)cc2)CC1 [CBK013363C],47.9685
21,Cc1cc(=O)c2ccccc2n1CC(=O)N1CCNC(=O)C1C (stereo not drawn) [CBK306511],82.5951

row,Structure (SMILES),% of control remaining
1,Cc1[nH]c(=O)[nH]c1C(=O)CCCCC(=O)O [CBK263197],90.7781
2,O=C(c1ccco1)N1C2CCC1CC(O)(c1cccnc1F)C2 (stereo not drawn) [CBK284417],62.8768
3,Cc1csc(C(Cc2cccs2)NCC2CCOC2)n1 (stereo not drawn) [CBK285051],96.3373
4,O=C(NCCSCc1ccco1)C1CCC1 [CBK057516],76.9734
5,CCN(CC)CCNC(=O)c1ccc(C(=O)O)c(C)n1 [CBK304248],38.156
6,COc1ccc(OCCN(C)c2cnn(-c3ccc(C(=O)O)cc3)c(=O)c2Cl)cc1 [CBK296627],109.243
7,Cc1cc(C)n(CC(=O)NCC(c2cccs2)N2CCOCC2)n1 (stereo not drawn) [CBK305620],55.8872
8,O=C(NC1CCCCC1)[C@H]1CN2CCC1C[C@@H]2Cn1cc(CO)nn1 (stereo partly drawn) [CBK289086],115.145
9,O=C1Cc2cc3ccccc3cc2C2(CCN(C(=O)C3CCC3C(=O)O)CC2)N1 (stereo not drawn) [CBK047252],99.8797
10,O=C(O)C1=CC(c2ccccc2)=NS(=O)(=O)N1 [CBK286828],74.8374
11,OC1(c2nnsc2-c2ccccc2)CCCC1 [CBK007956],89.8361
12,Cc1nc2ccc(C(=O)NCCN3CCc4ccccc43)cc2[nH]1 [CBK283280],98.4402
13,COc1ccccc1CNC(=O)c1ccc(=O)[nH]c1 [CBK288133],85.343
14,COC(=O)c1ccc(NC(=O)CCN2C(=O)c3cccc([N+](=O)[O-])c3C2=O)cc1 [CBK263137],70.0307
15,Cc1cc(C[C@@H]2COC[C@H]2NCc2ccc(C(F)(F)F)cc2)on1 [CBK285463],95.1428
16,O=S(=O)(c1sccc1F)N1CCOCC1c1cccc(F)c1 (stereo not drawn) [CBK304730],32.481
17,CC(=O)C12CCCCC1CC1C3CC(C)C4(O)CC(O)CCC4(C)C3CCC12C (stereo not drawn) [CBK261479],91.4707
18,CC(=O)N1N=C(COc2ccc3c(c2)OCO3)OC1c1ccc(C)cc1 (stereo not drawn) [CBK294397],94.2384
19,CC1CN(Cc2nc3c(c(=O)[nH]c(=O)n3C)n2Cc2cccc(Cl)c2)CC(C)O1 (stereo not drawn) [CBK269450],68.5597
20,c1csc(CN2CCNCC2)c1 [CBK027324],108.888
21,Cc1ccc(OCc2ccccc2)c(Br)c1 [CBK002833],119.933

row,Structure (SMILES),% of control remaining
1,CS(=O)(=O)N1CCc2cc(C(=O)Cn3nc(C(=O)O)c4ccccc4c3=O)ccc21 [CBK297000],102.039
2,N#CC(c1ccc(Br)cc1)n1ccnc1 (stereo not drawn) [CBK009985],95.4995
3,Cc1c(F)cccc1CN(CC(C)(C)CN)C(=O)Nc1ccc2c(c1)OCO2 [CBK002486C],38.5637
4,CCn1c(=N)c(C(=O)NCCOC)cc2c(=O)n3ccccc3nc21 [CBK287605],93.7554
5,O=C(CC1CCN(Cc2ccccn2)CC1)Nc1ccc(OC2CCCC2)cc1 [CBK285960],46.4541
6,O=C(Nc1ccc([C@@H](O)[C@H]2COCC(=O)N2Cc2ccccc2F)cc1)c1cnccn1 [CBK289060],129.256
7,C=CCn1c(SC(C)C(=O)O)nnc1-c1ccc(OC)cc1 (stereo not drawn) [CBK268958],90.5776
8,CN(C)CCN(CC#Cc1ccccc1)CC#Cc1ccccc1 [CBK265035C],104.13
9,CC(C)CN1C(=O)COC[C@@H]1[C@H](O)c1ccc(NC(=O)c2cccnc2)cc1 [CBK289692],105.725
10,O=C(Nc1ccc(I)cc1C(=O)Nc1cccnc1)c1ccccc1Cl [CBK266154],100.263
11,COc1ccccc1NC(=O)N(CC(C)C)CC(C)C [CBK005456],59.4374
12,COc1cccc(CC(=O)N2CCC(Cc3ccc(-c4ccccc4)cc3)(C(N)=O)CC2)c1 [CBK285776],89.0051
13,CN1C(=O)C2(CC(=O)N(CC3CCCCC3)C2=O)c2cc(F)ccc21 (stereo not drawn) [CBK075257],102.399
14,CCOc1cc(NC2CCN(C(=O)CC3(O)CCCCC3)CC2)ncn1 [CBK304141],26.4253
15,C=CCNC(=O)C1CC2CCC1(C)C[C@@]21NC(=O)c2ccccc2N1 (stereo partly drawn) [CBK284442],84.4393
16,Cc1ccc(C(=O)NCCN2CCOCC2)c(N2CCOCC2)n1 [CBK106201],75.9542
17,NS(=O)(=O)c1ccc(NC(=S)NNC(=O)C2c3ccccc3Oc3ccccc32)cc1 [CBK267024],102.481
18,CSc1nc(N)cc(N2CCN(C(=O)OC(C)(C)C)CC2)n1 [CBK003458],87.3973
19,CC(C)n1cc(C(=O)N2CCC(c3cc4ncccc4[nH]3)CC2)cn1 [CBK283392],72.6156
20,Cc1cc(C(=O)NC2(C#N)CCSCC2)n(C)n1 [CBK306386],75.1857
21,Cc1cc(Cl)cc(Cl)c1S(=O)(=O)Nc1nc(-c2cccc([N+](=O)[O-])c2)cs1 [CBK000902],101.094

row,Structure (SMILES),% of control remaining
1,CN(C)CCC1OC(=O)N(c2ccccc2)C1=O (stereo not drawn) [CBK010134C],96.9957
2,COc1cc2c(cc1OC)CN(C(=O)Cc1ccccc1)CC2 [CBK122751],89.5559
3,CCCn1cc(NC(=O)NC(C)(CC)CO)ccc1=O (stereo not drawn) [CBK304864],34.7948
4,CC(=O)NCC1CCC(C(NC(=O)C2CC2)c2ccccn2)CC1 (stereo not drawn) [CBK283000],93.9262
5,Fc1ccc(COc2ccc3ccccc3c2CNc2nn[nH]n2)cc1 [CBK268211],95.2876
6,COc1ccc(-c2cc3ccc(OC(C)C(=O)O)cc3oc2=O)cc1 (stereo not drawn) [CBK267947],86.855
7,CC(=O)Nc1ccc(NC(=O)c2cnc(-c3cccc(C)c3)c(-c3ccncc3)c2)cc1C(F)(F)F [CBK036660],32.7191
8,Cc1nc[nH]c1CN(Cc1cccc(F)c1)CC1CCCO1 (stereo not drawn) [CBK282525],135.218
9,O=c1[nH]c(=O)c2cc(S(=O)(=O)NC(c3ccccc3)c3ccccc3)ccc2[nH]1 [CBK286375],58.4878
10,COc1cc(/C=C2/S/C(=N\c3ccccc3)NC2=O)ccc1OCc1ccccc1[N+](=O)[O-] [CBK262165],95.6626
11,O=C(NC1CCCC1)c1ccc(Cl)cc1Cl [CBK002108],66.619
12,CC(=O)Nc1cccc(Oc2nccnc2-c2ccc(C)cc2C)c1 [CBK106986],21.9492
13,Oc1ccc(C2N=C(c3ccccc3)N=C(c3ccccc3)N2)cc1 (stereo not drawn) [CBK018755],100.601
14,O=C(Cn1cccn1)NC(Cc1cccs1)c1nccs1 (stereo not drawn) [CBK285136],103.425
15,Clc1ccc(-c2cc(NC3CCCCC3)ncn2)cc1 [CBK090902],130.205
16,Cc1c(C(=O)N2CCCCC2CN2CCOCC2)[nH]c2c(F)cccc12 (stereo not drawn) [CBK306751],89.8426
17,O=C(NCC1CCCO1)c1ccc(NC(=O)C2CC=CCC2C(=O)O)cc1 (stereo not drawn) [CBK266335],135.38
18,O=C(O)C(Cc1ccccc1)N1C(=O)/C(=C/C(Cl)=C/c2ccc([N+](=O)[O-])cc2)SC1=S (stereo not drawn) [CBK263523],99.4282
